Hit rate of the full screen: of about 52,000 compounds, about 4,300 (8.3%) were called active. No stated cut-off is given here; in the data, active means survival mostly below about 52% (no sharp cut-off); inactive means mostly above about 56%. This is one part of the list.

This experiment has as its system DeltatarO mutant. In words: S. aureus survival, RN4220 and DeltatarO strains – OD600, teichoic acid synthesis inhibitors, primary screen (AID 463173). The following applies: S. aureus RN4220 wild type/DeltatarO growth, OD600, 18 h, active compounds read low, screened at 18.75 µg/mL (by protocol).
In the case of `COc1ccc(-c2cc(-c3ccccc3)nc3c2COc2ccccc2-3)cc1`, the survival is inactive: 71%.

With `CC(C)CC(=O)Nc1nnc2n1CCS2`, the survival is inactive: 99%.

For `CCOc1ccc(NCc2cccn2-c2nnc(N3CCC(C(=O)NCc4cccc(OC)c4)CC3)s2)cc1`, the survival is inactive: 80%.

With `COc1ccc(-n2nnc(C(=O)Nc3ccccc3F)c2N)cc1`, the survival was inactive: 68%.

Regarding `CCc1ccccc1N(c1nc(-c2ccc(OC)c(OC)c2)no1)c1nc(-c2ccc(OC)c(OC)c2)no1`, the survival is inactive: 46%.

On to `COc1cccc(NC(=O)C(=O)NCCc2csc3nc(-c4ccccc4C)nn23)c1`, for which the survival was inactive: 72%.

`CC(C)(C)OC(=O)N1CCC(c2c(C(=O)NCc3ccccn3)cnn2-c2ccc(F)cc2)CC1`: the survival is inactive: 134%.

Regarding `COc1ccc2c(c1)c1c(c(=O)n(-c3cccc(C)c3)c(=O)n1CC(=O)N1CCCC1)n2C`, the survival is inactive: 84%.

Consider `Cc1cc(C)c2c(=O)cc(C(=O)Nc3ccc(S(=O)(=O)Nc4onc(C)c4C)cc3)oc2c1`, for which the survival is inactive: 49%.

Turning to `CCC(C)NC(=O)c1ccc2c(c1)N=C(C)c1cc(C)ccc1S2` (stereo not drawn), the survival was inactive: 116%.

As for `CCc1cccc(C)c1NC(=O)Cn1c(=O)n(-c2cccc(C)c2)c(=O)c2c1c1cc(C)ccc1n2C`, the survival is inactive: 85%.

For the compound `COc1ccccc1N1CCN(C(=O)Cn2cnc3sc(C)c(S(=O)(=O)N4CCC(C)CC4)c3c2=O)CC1`, the survival was inactive: 84%.

For the compound `Cc1cccc(Cc2c(C)nc3nc(SCC(=O)NCc4ccc(F)cc4)nn3c2C)c1`, the survival is inactive: 56%.

`CC(=O)NCc1nc2cccnc2n1Cc1ccccc1`: the survival was inactive: 85%.

On to `CC(=O)c1cc(-c2ccccc2)n(CCC(=O)NCCc2ccccc2)c1C`, for which the survival was inactive: 112%.

Turning to `Cc1ccc(Cc2nc3ccccc3nc2SCC(=O)NCCc2ccccc2)cc1`, the survival was inactive: 67%.

For `Cc1nc2c(-c3ccc(F)cc3)c(C)nn2c(C)c1CCC(=O)N1CCN(c2ccc(F)cc2)CC1`, the survival is inactive: 64%.

On to `Cc1oc(-c2cccc(Cl)c2)nc1CSc1nnc(C)n2c1cc1occc12`, for which the survival was inactive: 79%.

As to `c1ccc(-n2nnnc2N2CCCC2)cc1`, the survival was inactive: 78%.

For `Cc1ccccc1OCc1nnc(SCc2cc(=O)c3ccc(C)c(C)c3[nH]2)n1C`, the survival was inactive: 72%.

With `CC1CCCCN1C(=O)Cn1cc(C#N)c2ccccc21` (stereo not drawn), the survival is inactive: 84%.

For the compound `O=S(=O)(c1ccccc1)c1cccc(S(=O)(=O)N2CCCC2)c1`, the survival is inactive: 86%.

Regarding `COc1ccccc1-c1nc(S(=O)(=O)c2ccccc2)c(N2CCC(C)CC2)o1`, the survival is active: 19%.

Consider `Cc1ccc(-c2cc3c(n2-c2ccc(F)cc2)CC(C)(C)CC3=O)cc1`, for which the survival was inactive: 98%.

Regarding `CN(C(=O)c1c2c(nc3ccccc13)C(=O)N(C1CCCCC1)C2)c1ccc(F)cc1`, the survival was active: 0%.

Consider `COC(=O)c1c(SCC(=O)Nc2cccc(Cl)c2C)[nH]c2ccccc2c1=O`, for which the survival is inactive: 90%.

For the compound `Cc1ccc(S(=O)(=O)NCCc2csc3nc(-c4ccccc4F)nn23)cc1C`, the survival was inactive: 75%.

Take `OCC#Cc1cnc2ccccc2c1`: the survival was inactive: 77%.

With `CC(C)(C)OC(=O)N1CCC(c2c(C(=O)N3CCC(c4ccccc4)C3)cnn2-c2ccc(Cl)cc2)CC1` (stereo not drawn), the survival is inactive: 99%.

For `COc1cccc(-c2nc(SCc3ccc(C)cc3)n3[nH]c(=O)cc3n2)c1`, the survival was inactive: 131%.

With `CC(NC(=O)C1CCN(S(=O)(=O)c2ccc3c(c2)oc(=O)n3C)CC1)c1ccccc1` (stereo not drawn), the survival is inactive: 104%.

Take `O=[N+]([O-])c1ccc(S(=O)(=O)N2CCn3cccc3C2c2ccccc2F)cc1` (stereo not drawn): the survival was inactive: 113%.

On to `CCOC(=O)c1cccc(NC(=O)CSc2nc3cc4ccccc4cc3[nH]2)c1`, for which the survival was active: 36%.

In the case of `CC(C)c1cnc2c(c1SCC(=O)O)c(=O)n(C)c(=O)n2C`, the survival was inactive: 71%.

As for `COc1ccccc1-c1cc(C(=O)NCCc2ccccc2)no1`, the survival was inactive: 57%.

Regarding `CCC(C(=O)NCc1cccc(Br)c1)n1nc(C)c2c(C)n(-c3ccccc3)nc2c1=O` (stereo not drawn), the survival was inactive: 107%.

On to `CC(=O)Nc1ccc(NC(=O)c2cnn(-c3ccccc3)c2C2CCN(C(=O)OC(C)(C)C)CC2)cc1`, for which the survival was inactive: 75%.

Turning to `O=S(=O)(Nc1cccc(F)c1)c1ccc2[nH]c3c(c2c1)CCCCC3`, the survival is inactive: 81%.

With `COc1ccccc1CCNC(=O)C(=O)NCC(c1ccco1)S(=O)(=O)c1ccccc1` (stereo not drawn), the survival is inactive: 77%.

With `CC(C)(C)NC(=O)CN1CCC(n2nnc3cc(F)ccc32)CC1`, the survival is inactive: 93%.

Regarding `Cc1cccc(NC(=O)CSc2nc3ccccc3c3nc(CCc4c(C)n[nH]c4C)nn23)c1`, the survival is inactive: 83%.

Turning to `COc1ccc(Nc2nc3ccccc3nc2NS(=O)(=O)c2ccc(Cl)cc2)cc1OC`, the survival is active: 29%.

As to `COc1ccc(-c2csc(N)n2)cc1OC`, the survival is inactive: 77%.

In the case of `CCOc1ccc(NC(=O)CSC2=Nc3ccccc3C3=NC(Cc4ccccc4)C(=O)N23)cc1` (stereo not drawn), the survival is inactive: 92%.

Consider `CCOC(=O)c1c(C)[nH]c(C)c1S(=O)(=O)N1CCCC(C(=O)Nc2cccc(C)n2)C1` (stereo not drawn), for which the survival is inactive: 115%.

As for `CCCn1nc(NC(=O)c2cccc(Cl)c2)c2cc3cccc(C)c3nc21`, the survival is inactive: 91%.

With `COc1ccc(-c2nc3sc(CCNC(=O)C(=O)Nc4ccc(C)c(F)c4)c(C)n3n2)cc1`, the survival was inactive: 84%.

Consider `Cc1ccc(NC(=O)Cn2c(-c3nonc3N)nc3ccccc32)cc1C`, for which the survival is inactive: 119%.

Regarding `COc1ccccc1CN1CCN(C2CCN(C(=O)Nc3ccccc3)CC2)C(=O)C1=O`, the survival is inactive: 78%.

On to `CCc1ccc(S(=O)(=O)c2cn(C)c3cc(F)c(F)cc3c2=O)cc1`, for which the survival was inactive: 120%.

As for `COc1cc(OC)cc(C(=O)Nc2ccc3c(c2)OCCO3)c1`, the survival is inactive: 61%.

With `O=C(CNC(=O)c1ccccc1F)OCc1cc(=O)n2nc(C3CC3)sc2n1`, the survival was inactive: 107%.

With `CCOc1ccccc1Nc1nnc(-c2cc3cc(Cl)ccc3oc2=O)s1`, the survival was inactive: 80%.

Take `CN(C(=O)CSc1nc(-c2ccco2)cc(C(F)(F)F)n1)c1ccccc1`: the survival is inactive: 92%.

Turning to `CCC(=O)N1CCc2cc(CNC(=O)c3ccc(C#N)cc3)ccc21`, the survival is inactive: 76%.

As for `CCOC(=O)c1ccc(NC(=O)CSc2nc(-c3cccs3)cc(C(F)(F)F)c2C#N)cc1`, the survival is inactive: 58%.

`CCOC(=O)N1CCc2c(sc(NCc3sccc3C)c2C(=O)Nc2cc(Cl)ccc2OC)C1`: the survival was inactive: 78%.

As to `CCS(=O)(=O)c1nc(S(=O)(=O)c2ccc(C)cc2)c(NCC(C)C)s1`, the survival is inactive: 95%.

For the compound `CC(=O)C1=C(c2ccc(Cl)c(Cl)c2)N(C(C)=O)n2cnnc2S1`, the survival is inactive: 126%.

`O=C1CN(C(=O)COc2ccc(Cl)cc2)C(c2ccc(F)cc2)c2cc(Br)ccc2N1` (stereo not drawn): the survival was active: 36%.

Take `Cc1ccc(NC(=O)N2CCN(Cc3nc4ccc(C)cc4o3)CC2)c(Cl)c1`: the survival was inactive: 84%.

Take `CC(Nc1ccc(-c2nc(-c3ccco3)no2)cc1[N+](=O)[O-])c1ccccc1` (stereo not drawn): the survival was inactive: 100%.

On to `CN1CCN(CCCNc2c(N)c(=O)oc3ccccc23)CC1`, for which the survival is inactive: 86%.

For `CCS(=O)(=O)c1oc(-c2ccc(F)cc2)nc1S(=O)(=O)c1ccc(Br)cc1`, the survival was active: -5%.

Turning to `CC(C)(C)C(=O)Nc1cccc(C(=O)OCc2cc(=O)n3nc(C4CC4)sc3n2)c1`, the survival was inactive: 84%.

For `COc1ccccc1N1CCN(S(=O)(=O)CCNC(=O)C2CC(=O)N(c3ccccc3)C2)CC1` (stereo not drawn), the survival was inactive: 72%.

Take `COc1cc(NC(=O)c2cc3ccc4cccnc4c3[nH]2)cc(OC)c1OC`: the survival was inactive: 69%.

As for `CCOC(=O)c1ccc(NC(=O)CC2C(=O)N(c3ccc(C)cc3)C(=O)N2C2CCCC2)cc1` (stereo not drawn), the survival was inactive: 126%.

Regarding `CN(Cc1ccccc1)C(=O)C1CCC(CNS(=O)(=O)c2ccc3c(c2)CCCC(=O)N3)CC1` (stereo not drawn), the survival is inactive: 135%.

As to `Cc1ccc(N2CCN(C(=O)C3CCN(c4ncnc5c4nc4n5CCCCC4)CC3)CC2)c(C)c1`, the survival was inactive: 79%.

With `Cc1ccc2nc(NC(=O)c3nc(SCc4ccccc4C)ncc3Cl)sc2c1`, the survival is inactive: 98%.

Regarding `Cc1ccc(S(=O)(=O)N2CCC(NC(=O)c3ccccc3)CC2)cc1`, the survival is inactive: 56%.

For `CC(/C=C/c1ccccc1)=N\Nc1nc2c(c(=O)[nH]c(=O)n2C)n1CC(O)COC(C)C` (stereo not drawn), the survival is inactive: 84%.

Turning to `COCCCNC(=O)c1cnn(-c2ccc(F)cc2F)c1C1CCNCC1`, the survival is inactive: 112%.

Consider `O=C(NC1CCCCC1)N1CCN(Cc2ccccc2)CC1`, for which the survival was inactive: 69%.

In the case of `Nc1ccc2nc(-c3ccc(O)cc3)sc2c1`, the survival is inactive: 120%.

In the case of `COc1ccc(NC(=O)CC2C(=O)N(c3ccc(F)cc3)C(=O)N2CCc2sccc2C)cc1` (stereo not drawn), the survival is inactive: 69%.

As to `Cc1ccc2scc(N3CCCCC3)c(=O)c2c1`, the survival is inactive: 78%.

For the compound `Cc1ccc(N2CCN(C(=O)c3c(C)oc4ncnc(N5CCOCC5)c34)CC2)c(C)c1`, the survival was inactive: 94%.

On to `Cc1ccc(C)c(Nc2cc(C(=O)NCCCN(C)C3CCCCC3)c3ccccc3n2)c1`, for which the survival is inactive: 78%.

As to `Cc1ccc(N2C(=O)CS(=O)(=O)C23C(=O)N(C)c2ccccc23)cc1F` (stereo not drawn), the survival was inactive: 101%.

For the compound `COc1cc(NC(=O)NCC2CCN(Cc3ccc(C)cc3)CC2)cc(OC)c1OC`, the survival is inactive: 126%.

Turning to `Cc1cc(N2CCCC(O)C2)n2nc(C)c(-c3ccc(F)cc3)c2n1` (stereo not drawn), the survival is inactive: 96%.

With `Cc1ccc(CN2CCCn3nc(C(=O)NCc4cc(C)ccc4C)cc3C2=O)cc1`, the survival is inactive: 70%.

As for `Cc1ccc(C(=O)Nc2nnc(S(=O)(=O)N3CCN(c4ccc(F)cc4)CC3)s2)cc1`, the survival is inactive: 56%.

With `O=[N+]([O-])c1cc(-c2nc(-c3ccccn3)no2)ccc1NCc1ccccc1`, the survival was active: 39%.

In the case of `Cc1ccc(CNC(=O)c2cnc3c(-c4ccccc4)c(C)nn3c2C)o1`, the survival is inactive: 95%.

In the case of `Cc1cc(C)c(NC(=O)CS(=O)CC(=O)N2CCN(c3ccccc3)CC2)c(C)c1` (stereo not drawn), the survival was inactive: 90%.

The record behind these values is PubChem BioAssay AID463173 (ICCB-Longwood Screening Facility, Harvard Medical School, 2010).
